Results from the supplement of paper PMC10498489.
Among all 2,300 compounds or so, about 330 (14%) showed activity.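 How the source made its calls: active = median modified Z-score above 1.96; inactive = 1.96 or below.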 This is a selection; strong and weak results do not stand in their true shares.

tested on: HepG2 Srxn1-GFP reporter cells (+30 nM CDDO-Me); experiment: Srxn1-GFP intensity median modified Z-score relative to plate median; higher = stronger NRF2 / oxidative stress reporter activation, active = hit call of the paper; settings: 10 µM; exposure time: 24h
Summary of the method: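 Each value is the replicate median of a per-plate modified Z-score for GFP intensity in HepG2 Srxn1-GFP BAC reporter cells. The cells (20,000 per well, 96-well plates, three replicate plates) received compound at 10 μM together with an NRF2 activator at 30 nM for 24 h, in ≤0.1% DMSO. Cytoplasmic GFP was quantified per cell from confocal images of formaldehyde-fixed, Hoechst-stained cells, leaving out images with fewer than 100 cells, and scaling used 1.4826 × median absolute deviation.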

Srxn1-GFP intensity median modified Z-score, active:
O=C(N/N=C/c1ccc([N+](=O)[O-])o1)c1ccc(Br)cc1 4.87, Cc1c(Cl)cccc1Nc1ccccc1C(=O)O [euspeclibcmpd1068] 4.04, COc1cc(O)c(C(=O)C=Cc2ccc(OC)c(O)c2)c(OC)c1 [euspeclibcmpd1967] 23.8, C1N2CN3CN1CN(C2)C3 [euspeclibcmpd187] 9.99, O=C1CC(c2ccccc2)Oc2ccccc21 (configuration not stated) [euspeclibcmpd1376] 3.07, C=C(CC)C(=O)c1ccc(OCC(=O)O)c(Cl)c1Cl [euspeclibcmpd119] 14, O=C1C=CC(=C(c2ccc(O)cc2)c2ccc(O)cc2)C=C1 [euspeclibcmpd1770] 19.5, O=c1c(-c2ccc(O)cc2)coc2cc(O)cc(O)c12 [euspeclibcmpd1252] 7.05, COC(=O)[C@H]1[C@H]2C[C@@H]3c4[nH]c5cc(OC)ccc5c4CCN3C[C@H]2C[C@@H](OC(=O)c2cc(OC)c(OC)c(OC)c2)[C@@H]1OC [euspeclibcmpd2385] 6.53, COc1ccc2c(c1)CCC1C2CC[C@@]2(C)C1CC[C@@H]2O (some centres not stated) [euspeclibcmpd2297] 4.5, COc1ccc2c(c1)O[C@@H]1COc3cc(OC)c(OC)cc3C1C2=O (some centres not stated) [euspeclibcmpd1700] 22.8, Cc1cc(C(C)(C)CC(C)(C)C)ccc1OCCOCC[N+](C)(C)Cc1ccccc1 [euspeclibcmpd556] 24, COc1ccc2c(c1)C(=O)/C(=C\c1ccc(OC)c(O)c1)CO2 3.46, Oc1ccc(C=Cc2cc(O)cc(O)c2)cc1 [euspeclibcmpd1411] 12.1, CC(C)c1ccc2c(c1)CCC1C(C)(C(N)=O)CCCC21C (configuration not stated) [euspeclibcmpd1367] 15.1, C=C[C@H]1C[N@]2CC[C@H]1C[C@@H]2[C@@H](O)c1ccnc2ccc(OC)cc12 [euspeclibcmpd2428] 1.98, Cc1cc2nc3ccc(N(C)C)cc3[s+]c2cc1N [euspeclibcmpd1030] 9, Cn1c(SC2CCCCC2=O)nnc1-c1cccc(Br)c1 (configuration not stated) 4.66, CCCCC(=O)Oc1ccccc1C(=O)O [euspeclibcmpd1887] 14.5

Srxn1-GFP intensity median modified Z-score, inactive:
CNC[C@@H](O)c1ccc(O)c(O)c1 [euspeclibcmpd110] -0.782, CC(C(=O)O)c1cccc(Oc2ccccc2)c1 (configuration not stated) [euspeclibcmpd369] 0.111, Oc1ccc(C2CNCCc3c2cc(O)c(O)c3Cl)cc1 (configuration not stated) [euspeclibcmpd2419] -0.876, CCn1cc(C(=O)O)c(=O)c2cc(F)c(N3CCNCC3)nc21 [euspeclibcmpd544] -0.382, CC(=O)OCC(=O)NCCCOc1cccc(CN2CCCCC2)c1 [euspeclibcmpd469] -0.0535, C=CCc1ccc(O)c(OC)c1 [euspeclibcmpd126] 1.3, CC(CCC(=O)O)[C@H]1CCC2C3C[C@H](O)[C@@H]4C[C@H](O)CC[C@]4(C)C3CC[C@@]21C (some centres not stated) [euspeclibcmpd1521] -0.0273, CN(C)c1cnccn1 [euspeclibcmpd1126] 0.45, C[Se]CC[C@H](N)C(=O)O [euspeclibcmpd2460] -0.84, c1ccc2c(c1)CCCC2C1=NCCN1 (configuration not stated) [euspeclibcmpd289] -0.222, Cc1ncc([N+](=O)[O-])n1C [euspeclibcmpd1267] -0.381, C[C@](N)(Cc1ccc(O)cc1)C(=O)O [euspeclibcmpd2271] -0.309, Cc1cccc(C)c1NC(=O)c1ccccc1C(=O)O [euspeclibcmpd1175] 0.107, Nc1ccc(S(=O)(=O)NC(=O)c2ccccc2)cc1 [euspeclibcmpd272] -0.565, CNC[C@H](O)c1cccc(O)c1 [euspeclibcmpd236] -0.199, CCN(CC)CCNC(=O)c1ccc(NC(C)=O)cc1 [euspeclibcmpd945] -0.548, CN1C(=O)CC(C)(c2ccccc2)C1=O (configuration not stated) [euspeclibcmpd788] -0.824, Cc1cn(C2CC(N=[N+]=[N-])C(CO)O2)c(=O)[nH]c1=O (configuration not stated) [euspeclibcmpd435] 0.989, O=C(O)P(=O)(O)O [euspeclibcmpd2361] -0.115, CCCCCCCCCCCCCCCC[N+](C)(C)CCN(Cc1ccc(OC)cc1)c1ncccn1 [euspeclibcmpd626] 1.67, CC(C)NCC(O)c1ccc(NS(C)(=O)=O)cc1 (configuration not stated) [euspeclibcmpd910] -0.269, CCOc1ccccc1C(N)=O [euspeclibcmpd2373] -0.455, CO[C@@]1(NC(=O)C(C(=O)O)c2ccc(O)cc2)C(=O)N2C(C(=O)O)=C(CSc3nnnn3C)CO[C@@H]21 (some centres not stated) [euspeclibcmpd2139] 0.635, CC(=O)C(O)Nc1c(I)c(C(=O)NC(CO)CO)c(I)c(C(=O)NC(CO)CO)c1I (configuration not stated) [euspeclibcmpd459] -0.445, CN(C)CCCN1c2ccccc2CCc2ccc(Cl)cc21 [euspeclibcmpd941] 0.721, CO[C@@H]1[C@@H](O[C@@H]2O[C@H](C)[C@@H](O[C@H]3C[C@@](C)(O)[C@H](O)[C@H](C)O3)[C@H](N(C)C)[C@H]2O)[C@@H](CC=O)C[C@@H](C)[C@@H](O[C@H]2CC[C@H](N(C)C)[C@@H](C)O2)/C=C/C=C/C[C@H](C)OC(=O)C[C@H]1O [euspeclibcmpd581] 0.0936, Nc1ccc(O)c(C(=O)O)c1 [euspeclibcmpd903] 0.0529, CC(C)(C)OC(=O)N1[C@H](CNCC(=O)NCC2CC2)COC1(C)C 0.298, Cc1cc(OC(=O)c2c(C)cc(O)cc2O)cc(O)c1C(=O)O [euspeclibcmpd1418] -0.335, Clc1ccccc1CN1CCc2sccc2C1 [euspeclibcmpd838] 0.704, CS(=O)(=O)c1ccc([C@@H](O)[C@@H](CO)NC(=O)C(Cl)Cl)cc1 [euspeclibcmpd535] 0.0848, CCOc1cc(NC(C)=O)ccc1C(=O)OC [euspeclibcmpd2103] 0.255, O=c1[nH]cc(F)c(=O)[nH]1 [euspeclibcmpd825] -0.602, O=C(O)c1cc(=O)c2cccc(O)c2[nH]1 [euspeclibcmpd1429] -0.455, CC(C)[C@@H]1CC[C@@H](C)C[C@H]1O [euspeclibcmpd1123] 0.0319, CCC(c1ccc(O)cc1)C(CC)c1ccc(O)cc1 (configuration not stated) [euspeclibcmpd1035] 1.59, CC(=O)OC/C=C(C)/C=C/C=C(C)/C=C/C1=C(C)CCCC1(C)C [euspeclibcmpd1114] 0.44, O=C(C=Cc1ccc(O)c(O)c1)OC(Cc1ccc(O)c(O)c1)C(=O)O (configuration not stated) [euspeclibcmpd2083] -0.529, Cn1cc(O)[nH]c1=N [euspeclibcmpd1004] -0.153, CC1CCC(NC(=O)N(CCCl)N=O)CC1 (configuration not stated) [euspeclibcmpd125] 0.125, CC(c1cc2ccccc2s1)N(O)C(N)=O (configuration not stated) [euspeclibcmpd884] -0.107, CC(=O)Oc1cc(C(C)C)c(OCCN(C)C)cc1C [euspeclibcmpd1193] 0.256, CNNCc1ccc(C(=O)NC(C)C)cc1 [euspeclibcmpd1291] 0.00884, Nc1ccc(C(=O)Oc2ccccc2)c(O)c1 [euspeclibcmpd9] 0.24, CN(C)CCC=C1c2ccccc2C=Cc2ccccc21 [euspeclibcmpd540] 1.55, CN(C)CCc1c[nH]c2ccc(C[C@H]3COC(=O)N3)cc12 [euspeclibcmpd980] 0.441, NS(=O)(=O)c1cc2c(cc1Cl)NCNS2(=O)=O [euspeclibcmpd150] -0.544, CS(=O)(=O)Nc1ccc([N+](=O)[O-])cc1Oc1ccccc1 [euspeclibcmpd1133] -0.221, CCn1cc(C(=O)O)c(=O)c2cc(F)c(N3CCNC(C)C3)c(F)c21 (configuration not stated) [euspeclibcmpd475] -0.902, CN1CCc2cccc3c2C1Cc1ccc(O)c(O)c1-3 (configuration not stated) [euspeclibcmpd27] -0.33, CCn1cc(C(=O)O)c(=O)c2cc(F)c(N3CCN(C)CC3)cc21 [euspeclibcmpd844] 0.0989, Cc1ccc(S(=O)(=O)NCl)cc1 [euspeclibcmpd2189] -0.255, O=C(N/N=C/c1ccc([N+](=O)[O-])o1)c1ccc(O)cc1 [euspeclibcmpd1226] 0.949, Cc1ccc(C(C)C)cc2c(C)ccc1-2 [euspeclibcmpd1463] -0.455, CCOc1ccc2ccccc2c1C(=O)NC1C(=O)N2C1SC(C)(C)C2C(=O)O (configuration not stated) [euspeclibcmpd2391] -0.175, CN1CCN(C(c2ccccc2)c2ccc(Cl)cc2)CC1 (configuration not stated) [euspeclibcmpd2027] -0.00147, CCc1cc(C(N)=S)ccn1 [euspeclibcmpd122] -0.433, CC(=O)Nc1ccc(S(=O)(=O)Nc2ccc([N+](=O)[O-])cc2)cc1 [euspeclibcmpd574] -0.693
